Where “and” joins values, the source holds several entries; their conditions need not be identical. Equal entries are not always repeated. In all, about 110,000 compounds went through this assay and about 230 (0.21%) showed an effect of 50% or more. The list shows a part of the results.
target: DPAP1 (Plasmodium falciparum, UniProt Q8IIJ9); experiment: primary screen, percent inhibition; read by cleavage of a fluorogenic dipeptide substrate; higher = more effect of the substance; parameters: species or system P. falciparum D10 trophozoite lysates; single well
Sequence (Q8IIJ9 whole entry, looked up): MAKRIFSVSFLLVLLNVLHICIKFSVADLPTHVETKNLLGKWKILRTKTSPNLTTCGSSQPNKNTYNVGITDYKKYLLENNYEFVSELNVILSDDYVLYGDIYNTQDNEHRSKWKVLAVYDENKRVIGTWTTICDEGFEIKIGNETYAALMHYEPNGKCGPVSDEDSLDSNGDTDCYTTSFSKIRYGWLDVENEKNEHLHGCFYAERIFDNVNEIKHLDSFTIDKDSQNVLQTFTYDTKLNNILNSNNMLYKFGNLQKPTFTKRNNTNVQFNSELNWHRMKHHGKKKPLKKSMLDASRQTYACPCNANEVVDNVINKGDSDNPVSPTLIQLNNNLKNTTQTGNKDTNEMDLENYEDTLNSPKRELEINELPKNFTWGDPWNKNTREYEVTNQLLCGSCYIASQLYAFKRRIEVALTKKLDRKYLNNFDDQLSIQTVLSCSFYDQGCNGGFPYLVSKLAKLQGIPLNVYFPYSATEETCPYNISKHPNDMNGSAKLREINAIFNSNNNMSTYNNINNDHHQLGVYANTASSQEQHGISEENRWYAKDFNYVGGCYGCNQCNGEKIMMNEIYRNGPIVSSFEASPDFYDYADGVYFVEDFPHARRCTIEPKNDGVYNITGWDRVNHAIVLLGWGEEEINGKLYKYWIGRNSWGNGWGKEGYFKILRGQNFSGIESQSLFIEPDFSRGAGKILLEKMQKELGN
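Further: 30 min substrate incubation versus DMSO and 10 µM JCP410 controls.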

Row | Structure (SMILES) | % Inhibition @ 10 uM
1 | O=C(Nc1ccc(Br)cc1)[C@@H]1C2C=CC(C2)[C@@H]1C(=O)O (stereo partly shown) | -7.42%
2 | Cc1sc2ncn(CC(=O)NCCCC(=O)NCCCN3CCOCC3)c(=O)c2c1C | 6.64%
3 | O=C(O)C1CC=CCC1C(=O)Nc1ccccc1C(=O)N1CCN(c2ccc(F)cc2)CC1 (stereo not shown) | -2.67%
4 | CCOC(=O)c1cc2c(=O)n3ccccc3nc2n(CCOC)/c1=N/C(=O)c1cccc2ccccc12 | -3.78%
5 | CCCOc1ccc(C(=O)Nc2cccc(C(=O)Nc3nccs3)c2)cc1 | 2.42%
6 | OC12CCCCC1C(c1ccc3ccccc3c1)NCC2 (stereo not shown) | 1.54%
7 | O=C(Nc1ccc(Cl)c(Cl)c1)C(=O)NC1CCCCC1 | 4.54%
8 | CC(/N=C/c1c(O)oc2ccccc2c1=O)C(=O)O (stereo not shown) | 1.74%
9 | CN1C(=O)/C(=C/c2ccc(C(=O)O)cc2)S/C1=N/c1ccc(Cl)cc1 | 1.31%
10 | COCCCNC(=O)c1cc2c(=O)n3ccccc3nc2n(Cc2ccco2)c1=N | 1.97%
11 | CC(=O)c1cc(F)c(N2CCN(C(C)=O)CC2)cc1C | 3.65%
12 | O=C(NC1CCCC1)c1nnc(-c2ccc(CN3CCc4ccccc4C3)cc2)o1 | 11.2%
13 | CCOC(=O)c1cc(-c2ccc(OC)c(S(=O)(=O)NCc3cc(C)ccc3C)c2)on1 | -0.48%
14 | COc1ccc(CNCc2cccs2)cc1OC | -2.76%
15 | COc1ccc(-n2cnc3nc(C)c(C(C)=O)c(-c4ccccc4)c32)cc1 | -4.93%
16 | CCCCNC(=O)C(=O)NCCN1CCOCC1 | -1.33%
17 | Cc1ccc2c(c1)c1c3n2CCN(CC#N)C3CCC1 (stereo not shown) | -0.415%
18 | COc1ccccc1Nc1nc(-c2ccc(F)cc2)cs1 | 1.13%
19 | CCCNC(=O)c1cc2c(=O)n3cccc(C)c3nc2n1C | 0.189%
20 | O=C(NC(c1ccccc1)c1c(O)ccc2ccccc12)c1ccccc1Br (stereo not shown) | -0.152%
21 | CC1(C)CC2=Nc3ccccc3NC(c3ccc(Br)cc3)C2=C(O)C1 (stereo not shown) | 3.83%
22 | CCn1cc(C2=NOC(C(=O)N3CCN(C(=O)c4ccco4)CC3)C2)c(C)n1 (stereo not shown) | -1.37%
23 | CN(C)S(=O)(=O)n1cc(/C=C/c2nc(N)nc(-c3ccccc3O)n2)c2ccccc21 | 3.36%
24 | O=C(NCCCc1ccccc1)C1CCN(c2ncnc3c2sc2cccc(F)c23)CC1 | 1.03%
25 | CCOC(=O)c1c(-c2ccccc2)csc1/N=C/c1ccc(O)c(OC)c1 | 0.0719%

Row | Structure (SMILES) | % Inhibition @ 10 uM
26 | CC1Cc2ccccc2N1S(=O)(=O)c1cnc(Cl)c(Br)c1 (stereo not shown) | -1.51%
27 | COc1ccc(-c2noc(C(=O)NCc3cc(C)nc4ccccc34)n2)cc1OC | 6.31%
28 | COc1ccc(C2=NN(S(C)(=O)=O)C(c3cc4cc(OC)c(OC)cc4nc3Cl)C2)cc1 (stereo not shown) | 2.76%
29 | CCN(CC)CCN1C(=O)C(O)=C(C(=O)c2ccc(Cl)cc2)C1c1ccc(OC)cc1 (stereo not shown) | 1.58%
30 | O=c1c2c3c(sc2n2c(S)nnc2n1-c1ccccc1)CCC3 | -2.54%
31 | COc1ccccc1CNc1nc2nc(C)cc(C)n2n1 | 0.795%
32 | CC(NCCO)C(C)C(c1ccccc1)c1ccccc1 (stereo not shown) | -2.36%
33 | Cc1ccnc2nc(NC(=O)C(C)Oc3ccccc3)nn12 (stereo not shown) | -1.31%
34 | CC(=O)c1ccc(NC(=O)c2c(-c3ccccc3Cl)noc2C)cc1 | 0.823%
35 | CCOc1ccc2nc3cc(N)ccc3c(N)c2c1 | 3%
36 | COc1cccc(C(=O)Nc2nc3ccccc3[nH]2)c1OC | 4.44%
37 | CS(=O)(=O)CCC(C(=O)N1CCc2ccccc2C1)N1Cc2ccccc2C1=O (stereo not shown) | -3.53%
38 | O=C(Cc1coc(-c2ccc(F)cc2)n1)NCc1ccccc1 | -5.81%
39 | CCCCCn1cc(C(=O)c2ccc(C)cc2)c(=O)c2ccc(C)nc21 | -1.01%
40 | N#CCCN(CCc1ccccc1)S(=O)(=O)c1cccc2nsnc12 | 3.25%
41 | O=C(NCCc1ccc(Cl)cc1)C1CCCN(S(=O)(=O)c2cccc3nonc23)C1 (stereo not shown) | -7.27%
42 | CCc1ccc2c(c1)C1CC(C)(O2)N(CC)C(=S)N1 (stereo not shown) | -4.94%
43 | Cc1ccc(C(=O)NCc2ccccc2)c(O)n1 | -0.261%
44 | O=[N+]([O-])c1ccc(-c2cn3cc(Br)ccc3n2)cc1 | -6.18%
45 | CCCCC1CCC(C(=O)NCC(c2ccco2)N2CCCC2)CC1 (stereo not shown) | 0.401%
46 | N=C1S/C(=C\c2cn(-c3ccccc3)nc2-c2cccs2)C(=O)N1c1nccs1 | -1.24%
47 | O=C1N=C(Nc2ccccc2Cl)S/C1=C/c1cccnc1 | -5.07%
48 | Cc1cccc(NC(=O)C2CCC(CNc3c(N4CCC(C)CC4)c(=O)c3=O)CC2)n1 (stereo not shown) | -3.96%
49 | Cc1ccc2nc(O)c3cc(C(=O)O)sc3c2c1 | -0.631%
50 | CC(C)c1ccc(CNC(=O)c2ccc(C(C)(C)C)cc2)cc1 | -0.446%

Row | Structure (SMILES) | % Inhibition @ 10 uM
51 | CCC(C(=O)NC(C)CCc1ccco1)n1nc(C)n2c(cc3occc32)c1=O (stereo not shown) | -7.54%
52 | CCCOC(=O)Nc1nc(-c2ccc(C)cc2)c(C)s1 | 2.38%
53 | N#CCNC(=O)C(Cc1ccc(Br)cc1)NC(=O)OCc1ccccc1 (stereo not shown) | -0.413%
54 | Cc1nc2nc(CCc3ccccc3)nn2c(C)c1Cl | 2.62%
55 | COc1ccc(/C=C2/C=C(c3ccccc3)OC2=O)cc1OC | 1.25%
56 | Cc1ccc(Sc2ccncc2S(=O)(=O)NC(=O)NC(C)(C)C)cc1 | 3.8%
57 | Cc1ccc2c(c1)-c1onc(C(=O)NCCOC34CC5CC(CC(C5)C3)C4)c1CO2 | 1.42%
58 | COc1cc(CN(CCO)Cc2ccccc2)c([N+](=O)[O-])cc1OC | 2.7%
59 | CCOc1ccc2nc(N(CCN(C)C)C(=O)CCS(=O)(=O)c3ccccc3)sc2c1 | -7.35%
60 | CC1(O)N(CCc2ccccc2)C(=O)OC12CCCCC2 (stereo not shown) | 0.726%
61 | CC(C)(O)C#Cc1ccc(C#CC(C)(C)O)s1 | -6.33%
62 | COc1ccccc1CNC(=O)Cn1ncc2c(=O)oc3ccccc3c21 | 0.708%
63 | CCN(CC)C(=O)C1CCCN(Cc2ccco2)C1 (stereo not shown) | -0.0404%
64 | Cc1ccc(O)c(CCc2ccccc2)n1 | 6.24%
65 | COc1ccc2c(c1)Cc1sc(NC(=O)c3ccc(C)cc3)nc1-2 | 7.85%
66 | CCc1onc2cc(C(=O)c3ccccc3)ccc12 | -6.11%
67 | O=C(CN1Cc2ccccc2C1=O)N1CCC2(CC1)OCCO2 | 1.6%
68 | N#CC1=C(N)N=C(S)[C@@H](C(N)=O)[C@@H]1c1ccc(Br)cc1 | 9.92%
69 | CCC(C)C(NC(=O)OCc1ccccc1)C(=O)N[C@@H](CCc1ccccc1)C(=O)C[N+](=O)[O-] (stereo partly shown) | 2.22%
70 | COc1ccc(C2c3c(-c4cc(C)ccc4O)n[nH]c3C(=O)N2Cc2ccco2)cc1OC (stereo not shown) | 6.85%
71 | O=c1c2c(nc3n1CC(O)CS3)-c1ccccc1CC21CCCC1 (stereo not shown) | -0.711%
72 | c1ccc(-c2nnc3c4ccccc4c4ccccc4c3n2)nc1 | -1.82%
73 | COCCNC(=S)NCc1ccc2[nH]c(C)cc2c1 | 1.55%
74 | CC(=O)c1cccc(NC(=O)c2c(-c3ccccc3)noc2C)c1 | -6.24%
75 | CC1(C)Cc2nc(N)c(C#N)cc2CO1 | -2.6%

Row | Structure (SMILES) | % Inhibition @ 10 uM
76 | Cc1c(C(=O)N2CCCCCC2)oc2ccc3c(c12)C(=O)CC(C)(C)O3 | 0.0882%
77 | COc1ccc(CCNC(=O)c2cc(-c3ccco3)on2)cc1OC | -7.85%
78 | CC(C)C[C@H](NC(=O)c1csc(-c2ccccc2[N+](=O)[O-])n1)C(=O)NCC#N | -11%
79 | COc1ccc2c(c1)CCC/C2=N\OC(=O)c1ccccc1F | 3.16%
80 | Cc1nc(N=C(N)N)nc2c(C)cccc12 | 2.03%
81 | CC(C)C(C(=O)Nc1cccc2ccccc12)N1C(=O)c2ccccc2C1=O (stereo not shown) | 1.33%
82 | O=C(Nc1ccc(Cl)c(Cl)c1)c1ccc([N+](=O)[O-])o1 | -2.78%
83 | FC(F)Oc1ccccc1C1C=C(c2ccc(Cl)cc2)Nc2nnnn21 (stereo not shown) | -1.62%
84 | CCn1c(=N)n(CCOc2ccccc2C)c2ccccc21 | 1.29%
85 | O=C(NC1(C(F)(F)F)NC(=O)N(c2ccc(F)cc2)C1=O)c1ccco1 (stereo not shown) | 0.231%
86 | Cc1ccc(C(=O)Nc2ccc(-c3nc4ncccc4o3)cc2)cc1C | 25.8%
87 | O=C(COc1ccccc1)Nc1nc2ccc(Cl)cc2s1 | 10.9%
88 | CCOc1cc(CNCC2CCCN2CC)cc(Cl)c1OCC(N)=O (stereo not shown) | 0.895%
89 | Cc1nc(Sc2ccc(Cl)cc2)c2c3c(sc2n1)CCCC3 | -3.92%
90 | CCCCOc1ccc(C2C(C#N)=C(N)Oc3c2c(C)nn3-c2ccccc2)cc1OC (stereo not shown) | 2.8%
91 | CC1=C(CCN2CCN(CCOCCO)CC2)C(C)(C)CCC1 | -4.75%
92 | COc1ccccc1CNC(=O)C1CCCN(c2ncnc3c2sc2cccc(F)c23)C1 (stereo not shown) | -6.01%
93 | Cc1cc(C)c(S(=O)(=O)N2C(=O)CCC2C(=O)Nc2ccc(Cl)cc2)c(C)c1 (stereo not shown) | 1.64%
94 | CC(C(=O)NCCCc1ccccc1)n1c2ccccc2c2cnn(C)c(=O)c21 (stereo not shown) | -0.281%
95 | Cc1cccc(N2C(=O)CC(NCc3ccc(S(N)(=O)=O)cc3)C2=O)c1 (stereo not shown) | -1.96%
96 | Cc1ccc(OCC(=O)Nc2ccc3ccccc3c2)cc1C | 6.61%
97 | CCCC(=O)Nc1ccc(C(=O)Nc2ccc(F)cc2F)cc1 | -2.98%
98 | COc1ccc(-c2csc(Nc3ccc(Cl)cc3)n2)cc1F | 1.43% and -0.771%
99 | CCOC(=O)C1=C(C)OC(N)=C(C#N)C1c1ccc(C)s1 (stereo not shown) | -2.2%
100 | COc1cc2c(cc1OC)C(c1cccc(F)c1)N(C/C=C(\C)CCC=C(C)C)CC2 (stereo not shown) | -1.5%

Source: PMC6919601, “Identification of Plasmodium dipeptidyl aminopeptidase allosteric inhibitors by high throughput screening” (PLoS ONE, 2019)
